Drawing on publication PMC3380837, this text covers binding for 5 molecules.

Results are given in words; binding and its absence hold for the method and conditions named. In cells and extracts the contact can be indirect. Some binding calls cover weakened binding; strength is not graded here. Sequences can lack the tags named with a protein.

The target in one test is Myc-p53 (UniProt P04637). The test can be described thus: co-IP; Hela cells co-transfected with Myc-p53 and Flag-SHP variants; co-IP and Western blot with corresponding antibodies. A general note: Immunoblotting shows a protein as a band on a membrane.
In a further test the target is GST-p53 (UniProt P04637). The test can be described thus: co-IP; 293T cells co-transfected with Flag-SHP variants and GST-p53; whole cell lysates immunoprecipitated with anti-GST antibodies, SHP detected with anti-Flag.

B1: Flag-SHPWT (small heterodimer partner, wild type) (protein, UniProt Q15466 1-257)
chain: MSTSQPGACPCQGAASRPAILYALLSSSLKAVPRPRSRCLCRQHRPVQLCAPHRTCREALDVLAKTVAFLRNLPSFWQLPPQDQRRLLQGCWGPLFLLGLAQDAVTFEVAEAPVPSILKKILLEEPSSSGGSGQLPDRPQPSLAAVQWLQCCLESFWSLELSPKEYACLKGTILFNPDVPGLQAASHIGHLQQEAHWVLCEVLEPWCPAAQGRLTRVLLTASTLKSIPTSLLGDLFFRPIIGDVDIAGLLGDMLLLR
Turning to B1, the binding result in the test with Myc-p53 and with GST-p53 was “binds” throughout.

B2: Flag-SHPK170R (protein, UniProt Q15466 1-257)
chain: MSTSQPGACPCQGAASRPAILYALLSSSLKAVPRPRSRCLCRQHRPVQLCAPHRTCREALDVLAKTVAFLRNLPSFWQLPPQDQRRLLQGCWGPLFLLGLAQDAVTFEVAEAPVPSILKKILLEEPSSSGGSGQLPDRPQPSLAAVQWLQCCLESFWSLELSPKEYACLRGTILFNPDVPGLQAASHIGHLQQEAHWVLCEVLEPWCPAAQGRLTRVLLTASTLKSIPTSLLGDLFFRPIIGDVDIAGLLGDMLLLR
Regarding B2, the binding result with GST-p53 is given as “binds”.

B3: Flag-SHP38H (SHP R38H) (protein, UniProt Q15466 1-257)
chain: MSTSQPGACPCQGAASRPAILYALLSSSLKAVPRPRSHCLCRQHRPVQLCAPHRTCREALDVLAKTVAFLRNLPSFWQLPPQDQRRLLQGCWGPLFLLGLAQDAVTFEVAEAPVPSILKKILLEEPSSSGGSGQLPDRPQPSLAAVQWLQCCLESFWSLELSPKEYACLKGTILFNPDVPGLQAASHIGHLQQEAHWVLCEVLEPWCPAAQGRLTRVLLTASTLKSIPTSLLGDLFFRPIIGDVDIAGLLGDMLLLR
Turning to B3, in the test with Myc-p53, the binding result is on record as “binds”.

B4: Flag-SHP170N (SHPK170N) (protein, UniProt Q15466 1-257)
chain: MSTSQPGACPCQGAASRPAILYALLSSSLKAVPRPRSRCLCRQHRPVQLCAPHRTCREALDVLAKTVAFLRNLPSFWQLPPQDQRRLLQGCWGPLFLLGLAQDAVTFEVAEAPVPSILKKILLEEPSSSGGSGQLPDRPQPSLAAVQWLQCCLESFWSLELSPKEYACLNGTILFNPDVPGLQAASHIGHLQQEAHWVLCEVLEPWCPAAQGRLTRVLLTASTLKSIPTSLLGDLFFRPIIGDVDIAGLLGDMLLLR
Regarding B4, the binding result in the test with Myc-p53 is recorded as “binds”.

B5: Flag-SHPG171A (protein, UniProt Q15466 1-257)
chain: MSTSQPGACPCQGAASRPAILYALLSSSLKAVPRPRSRCLCRQHRPVQLCAPHRTCREALDVLAKTVAFLRNLPSFWQLPPQDQRRLLQGCWGPLFLLGLAQDAVTFEVAEAPVPSILKKILLEEPSSSGGSGQLPDRPQPSLAAVQWLQCCLESFWSLELSPKEYACLKATILFNPDVPGLQAASHIGHLQQEAHWVLCEVLEPWCPAAQGRLTRVLLTASTLKSIPTSLLGDLFFRPIIGDVDIAGLLGDMLLLR
For the molecule B5, the binding result with Myc-p53 is “no binding”.
